From PMC4599898
No constants are given. Whether binding was seen depends on the method and setting. In cells and extracts the contact can be indirect.

The chains behind the UniProt entries cited, without tags or fusion partners.
UniProt C0Z2L5: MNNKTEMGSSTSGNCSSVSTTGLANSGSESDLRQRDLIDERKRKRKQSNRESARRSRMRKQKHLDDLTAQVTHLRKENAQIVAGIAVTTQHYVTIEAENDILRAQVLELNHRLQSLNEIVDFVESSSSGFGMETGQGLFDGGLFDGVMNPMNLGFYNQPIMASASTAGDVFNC

How the values were obtained:
Test in all cases: split reporter; split YFP BiFC in transiently transformed Arabidopsis protoplasts, 2 ug of each plasmid, incubated overnight; read by flow cytometry (at least three biological replicates, minimum 30,000 cells); each pair tested in both fusion conformations (SPN and SPC); positive where the normalized BiFC score lies above the threshold 0.01 in both conformations
[1] = molecular target: T1, GBF1 (Arabidopsis thaliana) (UniProt P42774)
T1 sequence: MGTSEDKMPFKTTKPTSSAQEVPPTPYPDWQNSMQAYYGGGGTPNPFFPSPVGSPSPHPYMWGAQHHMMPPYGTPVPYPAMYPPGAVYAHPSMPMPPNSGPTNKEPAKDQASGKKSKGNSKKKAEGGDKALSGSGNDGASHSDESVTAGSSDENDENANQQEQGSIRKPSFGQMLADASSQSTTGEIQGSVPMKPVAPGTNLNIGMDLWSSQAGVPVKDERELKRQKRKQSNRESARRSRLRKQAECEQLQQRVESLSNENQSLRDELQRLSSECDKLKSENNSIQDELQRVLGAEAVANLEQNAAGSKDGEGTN

[2] = molecular target: T2, GBF2 (Arabidopsis thaliana) (UniProt P42775)
T2 sequence: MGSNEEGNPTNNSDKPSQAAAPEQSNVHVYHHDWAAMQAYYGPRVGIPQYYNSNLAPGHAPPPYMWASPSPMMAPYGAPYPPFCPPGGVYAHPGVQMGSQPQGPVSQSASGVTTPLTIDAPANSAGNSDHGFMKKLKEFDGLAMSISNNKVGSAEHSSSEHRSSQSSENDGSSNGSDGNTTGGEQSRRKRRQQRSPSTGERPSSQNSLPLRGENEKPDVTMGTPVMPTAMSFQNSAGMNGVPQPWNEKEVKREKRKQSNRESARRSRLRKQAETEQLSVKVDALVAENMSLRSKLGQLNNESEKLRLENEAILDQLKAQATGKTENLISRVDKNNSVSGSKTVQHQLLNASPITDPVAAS

[3] = molecular target: T3, GBF3 (Arabidopsis thaliana) (UniProt P42776)
T3 sequence: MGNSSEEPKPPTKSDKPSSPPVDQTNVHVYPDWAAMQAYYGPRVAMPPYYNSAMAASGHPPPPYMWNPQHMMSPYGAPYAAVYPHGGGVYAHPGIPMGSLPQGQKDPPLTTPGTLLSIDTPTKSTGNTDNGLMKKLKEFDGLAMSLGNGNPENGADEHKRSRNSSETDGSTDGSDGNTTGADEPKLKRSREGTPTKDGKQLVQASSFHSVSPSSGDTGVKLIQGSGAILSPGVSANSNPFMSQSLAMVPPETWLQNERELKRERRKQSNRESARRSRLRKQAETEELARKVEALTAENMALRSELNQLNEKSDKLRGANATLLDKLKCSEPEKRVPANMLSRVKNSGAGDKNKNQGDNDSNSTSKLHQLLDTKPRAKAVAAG

[4] = molecular target: T4, bZIP16 (Arabidopsis thaliana) (UniProt Q501B2)
T4 sequence: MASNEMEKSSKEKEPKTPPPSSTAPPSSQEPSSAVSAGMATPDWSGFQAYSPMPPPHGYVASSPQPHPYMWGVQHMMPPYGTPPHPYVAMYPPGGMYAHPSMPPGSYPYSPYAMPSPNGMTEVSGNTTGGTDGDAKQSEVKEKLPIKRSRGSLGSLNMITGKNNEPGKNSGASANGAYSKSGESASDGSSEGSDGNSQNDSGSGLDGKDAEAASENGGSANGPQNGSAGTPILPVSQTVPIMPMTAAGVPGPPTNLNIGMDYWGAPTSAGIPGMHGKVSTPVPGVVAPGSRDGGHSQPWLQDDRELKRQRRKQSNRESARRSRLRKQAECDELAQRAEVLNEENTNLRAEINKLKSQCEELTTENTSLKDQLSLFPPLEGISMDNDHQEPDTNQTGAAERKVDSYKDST

[5] = molecular target: T5, bZIP68 (Arabidopsis thaliana) (UniProt Q84LG2)
T5 sequence: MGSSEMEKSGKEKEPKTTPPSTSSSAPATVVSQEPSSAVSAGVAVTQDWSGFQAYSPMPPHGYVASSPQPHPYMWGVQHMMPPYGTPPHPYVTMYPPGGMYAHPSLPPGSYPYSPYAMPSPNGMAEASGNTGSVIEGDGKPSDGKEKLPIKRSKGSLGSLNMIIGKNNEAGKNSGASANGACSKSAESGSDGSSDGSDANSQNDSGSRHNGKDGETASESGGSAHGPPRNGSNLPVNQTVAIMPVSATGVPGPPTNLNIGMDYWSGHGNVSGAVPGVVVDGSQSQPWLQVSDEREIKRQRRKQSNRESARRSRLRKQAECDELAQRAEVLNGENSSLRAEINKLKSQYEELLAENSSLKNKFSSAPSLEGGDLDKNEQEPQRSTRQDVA

Measured: binding

bZIP44 (from UniProt C0Z2L5 1-173)
no binding: all assays above
